Laboratory results: patent publication US20040121959A1

target: nerve growth factor (NGF) (human or rat) (UniProt P01138); assay: cell-based or functional assay
Sequence of UniProt P01138 (P01138 122-241 limits assumed): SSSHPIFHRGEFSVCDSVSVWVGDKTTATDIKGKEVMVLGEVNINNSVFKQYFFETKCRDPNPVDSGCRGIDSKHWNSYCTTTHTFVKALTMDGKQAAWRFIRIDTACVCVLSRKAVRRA

Row | Binder | concentration for 50% inhibition of NGF induced activity, DRG neutralization assay [nM]
1 | [… human IgG1 Fc …]GGGGGQPTDQLGDWMLNYFRLVPPGTLE (Fc fusion) [matured modified peptide: Fc-(L SEQ ID NO: 285)-(P SEQ ID NO: 211), C-term] | < 20
2 | [… human IgG1 Fc …]GGGGGAQQTEWLWSLPLVEQYFSLVPPGYLE (Fc fusion) [matured modified peptide: Fc-(L SEQ ID NO: 285)-(P SEQ ID NO: 225), C-term] | > 20
3 | [… human IgG1 Fc …]GGGGGAQMIDWLSQNRLFEQYFELIPPGVLE (Fc fusion) [matured modified peptide: Fc-(L SEQ ID NO: 285)-(P SEQ ID NO: 239), C-term] | < 20
4 | [… human IgG1 Fc …]GGGGGAQLRELLSDLPMWEQYFRLMPPGYLE (Fc fusion) [matured modified peptide: Fc-(L SEQ ID NO: 285)-(P SEQ ID NO: 213), C-term] | > 20
5 | [… human IgG1 Fc …]GGGGGPTDQLGDWMLNYFRLVPPGTLE (Fc fusion) [matured modified peptide: Fc-(L SEQ ID NO: 285)-(P SEQ ID NO: 237), C-term] | < 20
6 | [… human IgG1 Fc …]GGGGGAQVTNILSQLPLWQQWLGLMPPGVLE (Fc fusion) [matured modified peptide: Fc-(L SEQ ID NO: 285)-(P SEQ ID NO: 206), C-term] | > 20
7 | [… human IgG1 Fc …]GGGGGQTDWRWDLPFVEDYFRLRPPGV (Fc fusion) [matured modified peptide: Fc-(L SEQ ID NO: 285)-(P SEQ ID NO: 238), C-term] | > 20
8 | [… human IgG1 Fc …]GGGGGAQLQALLRELPLYEQFFRLMPPGYLE (Fc fusion) [matured modified peptide: Fc-(L SEQ ID NO: 285)-(P SEQ ID NO: 205), C-term] | > 20
9 | [… human IgG1 Fc …]GGGGGAQLADLLAQLPMWEQYLGLTPPSSLE (Fc fusion) [matured modified peptide: Fc-(L SEQ ID NO: 285)-(P SEQ ID NO: 212), C-term] | > 20
10 | [… human IgG1 Fc …]GGGGGAQQGMWPGAMSLLEQYFALTPPGLLE (Fc fusion) [matured modified peptide: Fc-(L SEQ ID NO: 285)-(P SEQ ID NO: 230), C-term] | < 20
11 | [… human IgG1 Fc …]GGGGGAQNPGHLLDLPLFYQYFQLMPPGILE (Fc fusion) [matured modified peptide: Fc-(L SEQ ID NO: 285)-(P SEQ ID NO: 236), C-term] | < 20
12 | [… human IgG1 Fc …]GGGGGPTDQLGDWMLNYFRLVPPGT (Fc fusion) [matured modified peptide: Fc-(L SEQ ID NO: 285)-(P SEQ ID NO: 221), C-term] | < 20
13 | [… human IgG1 Fc …]GGGGGAQTQEWMMNLPLVEQYFGLTPPGMLE (Fc fusion) [matured modified peptide: Fc-(L SEQ ID NO: 285)-(P SEQ ID NO: 226), C-term] | > 20
14 | [… human IgG1 Fc …]GGGGGAQPTDQLGDWMLNYFRLVPPGT (Fc fusion) [matured modified peptide: Fc-(L SEQ ID NO: 285)-(P SEQ ID NO: 202), C-term] | < 20
15 | [… human IgG1 Fc …]GGGGGAQQSQKLQCEFSTSGCPDLPLMLE (Fc fusion) [matured modified peptide: Fc-(L SEQ ID NO: 285)-(P SEQ ID NO: 235), C-term] | < 20
16 | [… human IgG1 Fc …]GGGGGAQQSQKLQCEFSTSGCPDLPLQLE (Fc fusion) [matured modified peptide: Fc-(L SEQ ID NO: 285)-(P SEQ ID NO: 224), C-term] | < 20
17 | [… human IgG1 Fc …]GGGGGAEQSQKLQCEFSTSGCPDLPQMLE (Fc fusion) [matured modified peptide: Fc-(L SEQ ID NO: 285)-(P SEQ ID NO: 216), C-term] | < 20
18 | [… human IgG1 Fc …]GGGGGAQPTDQLGDWMLNYFRLVPPGTLE (Fc fusion) [matured modified peptide: Fc-(L SEQ ID NO: 285)-(P SEQ ID NO: 219), C-term] | < 20

Continued, values first:

Row | concentration for 50% inhibition of NGF induced activity, DRG neutralization assay [nM] | Binder
19 | < 20 | [… human IgG1 Fc …]GGGGGQTDWLSDLPLLEQYFRLMPPGV (Fc fusion) [matured modified peptide: Fc-(L SEQ ID NO: 285)-(P SEQ ID NO: 251), C-term]
20 | < 20 | [… human IgG1 Fc …]GGGGGGGPTDQLGDWMLNYFRLVPPG (Fc fusion) [matured modified peptide: Fc-(L SEQ ID NO: 286)-(P SEQ ID NO: 227), C-term]
21 | > 20 | [… human IgG1 Fc …]GGGGGAQAREWQTELPFFEQYFALMPPGVLE (Fc fusion) [matured modified peptide: Fc-(L SEQ ID NO: 285)-(P SEQ ID NO: 250), C-term]
22 | < 20 | [… human IgG1 Fc …]GGGGGAQNGDWMRGLPFLEQYFQLLPPGVLE (Fc fusion) [matured modified peptide: Fc-(L SEQ ID NO: 285)-(P SEQ ID NO: 271), C-term]
23 | > 20 | [… human IgG1 Fc …]GGGGGAEVEWQWCWFTEEGCPLPLRLE (Fc fusion) [matured modified peptide: Fc-(L SEQ ID NO: 285)-(P SEQ ID NO: 265), C-term]
24 | > 20 | [… human IgG1 Fc …]GGGGGAQMQELLRELPLYEQYMALMPPGMLE (Fc fusion) [matured modified peptide: Fc-(L SEQ ID NO: 285)-(P SEQ ID NO: 258), C-term]
25 | < 20 | [… human IgG1 Fc …]GGGGGAQPTDQLGDWMLNYFRLVPPGTL (Fc fusion) [matured modified peptide: Fc-(L SEQ ID NO: 285)-(P SEQ ID NO: 272), C-term]
26 | > 20 | [… human IgG1 Fc …]GGGGGAQLAEWLQQIPLYEQYFGLMPPDLLE (Fc fusion) [matured modified peptide: Fc-(L SEQ ID NO: 285)-(P SEQ ID NO: 262), C-term]
27 | < 20 | [… human IgG1 Fc …]GGGGGGGDQLGDWMLNYFRLVPPGT (Fc fusion) [matured modified peptide: Fc-(L SEQ ID NO: 286)-(P SEQ ID NO: 231), C-term]
28 | > 20 | [… human IgG1 Fc …]GGGGGAQLTDQLRLLPLYLQYFSLIPPVTLE (Fc fusion) [matured modified peptide: Fc-(L SEQ ID NO: 285)-(P SEQ ID NO: 253), C-term]
29 | > 20 | [… human IgG1 Fc …]GGGGGAQQTNWCMGIPYCEQYFGLSPHGILE (Fc fusion) [matured modified peptide: Fc-(L SEQ ID NO: 285)-(P SEQ ID NO: 260), C-term]
30 | < 20 | [… human IgG1 Fc …]GGGGGGGMIDWLSQNRLFEQYFELIPPG (Fc fusion) [matured modified peptide: Fc-(L SEQ ID NO: 286)-(P SEQ ID NO: 210), C-term]
31 | < 20 | [… human IgG1 Fc …]GGGGGAQQQQKLQCEFSTSGCPDLPLMLE (Fc fusion) [matured modified peptide: Fc-(L SEQ ID NO: 285)-(P SEQ ID NO: 279), C-term]
32 | < 20 | [… human IgG1 Fc …]GGGGGAQQSQKLQCEFSTSGCPDLPQQLE (Fc fusion) [matured modified peptide: Fc-(L SEQ ID NO: 285)-(P SEQ ID NO: 241), C-term]
33 | < 20 | [… human IgG1 Fc …]GGGGGAQQSQKLQCEFSTSGCPDLPQMLE (Fc fusion) [matured modified peptide: Fc-(L SEQ ID NO: 285)-(P SEQ ID NO: 280), C-term]
34 | < 20 | [… human IgG1 Fc …]GGGGGAQQQQKLQCEFSTSGCPDLPLMLE (Fc fusion) [matured modified peptide: Fc-(L SEQ ID NO: 285)-(P SEQ ID NO: 259), C-term]
